Measured values: patent US12551573B2, “Compositions and methods for the targeting of PCSK9” (Scribe Therapeutics Inc., priority 2022, dated 2026)
Read-outs that look alike come from different tables or passages of the source.

System: HBEGF locus
Type: cell-based, human
Details: high-throughput screen of dXR repression of the HBEGF gene
[1] = abundance of each domain in the library before and after diphtheria toxin selection, HEK293T cells
[2] = change in abundance of each domain in the library before and after diphtheria toxin selection

Molecule | Log2 (fold change) [1] | Log2 (fold change) [2]
DOMAIN_15042 (protein, Ovis aries) PQEPVTFADVAVLFTPEEWLFLDSSQKSLYRDVMLENYRNVASVGDQLCKTRMSSHLEQREELCVTERGIFPGAHLGPHLQ | 3.0774 | 
DOMAIN_14948 (protein, listed as Acinonyx jubatus) NSQGLLTFRDVAIEFSQEELRCLNHSQWELYRDVMFENYGHLLFLGLVVSKPDLVIFLEQKKDVWAVKRKETVATHPGRWE | 3.3727 | 
DOMAIN_14526 (protein, listed as Ailuropoda melanoleuca) KQGGVTFEDVAVYFSQEEWSLLNEAQRRLYHDVMLENFALISSLGCCCRAEAVETPFEQSISVGVSQAKTPKEPRSSQKTH | 3.2232 | 
DOMAIN_14557 (protein, listed as Lynx canadensis) SKVPVTFGDLAIYFSQEEWEWLSPIQKDLYEDVMLENYQNLVSLGLSFRRPNVITLLEKGRAPWMVEPVRKRRGLDSRSKY | 2.9876 | 
DOMAIN_14815 (protein, Cebus imitator) PQESVAFDDVAVYFTKKEWAIMVPDQRALYRDVMLENYEAVAFVAVPPTSKPALVSHLEQGKEPCFTQPQGVLSRRDWRAG | 3.3826 | 
DOMAIN_14532 (protein, listed as Lynx canadensis) SQGSVTFRDVAIDFSQEEWEWLQPTQRDLYRHVMLENYSHLVSLGLNISKPYVVSLLEQGKEPWLEKRGVRRNLFSEPNRE | 3.2071 | 
DOMAIN_14978 (protein, listed as Acinonyx jubatus) KPGALSFADVAVYFSSEEWGCLRPAQRALYRDVMRETYGHLGALGFAGPKPALISWMERKKEAWSPEAEDPEDRARHPGYG | 3.0358 | 
DOMAIN_14487 (protein, listed as Ailuropoda melanoleuca) LQESVTFRDVAVFFSQDEWLRLDSAQRTLYREVMLENYGTLVSLGIPFSTPKVICQLQQGEDPCVVDRELPQDAWPGLKTQ | 2.7981 | 
DOMAIN_14849 (protein, Cebus imitator) GPLTFRDVTIEFSHEEWKCLDPAQKALYKDVMLENYRNLVFLGITPKCTTKELPPIGNNNTGEKFRTVTLERHECYDIEDI | 2.3659 | 
DOMAIN_14820 (protein, listed as Callithrix jacchus) PQVSLTFEDVAVLFTRDEWRKLAPSQRNLYRDVMLENYRNLVSLGLPFTKPKVISLLQQGEDPWKVEKDCFGGSFLGCKSN | 2.8836 | 
DOMAIN_14939 (protein, listed as Callorhinus ursinus) QQRPVSFKDVVVGFTQEEWHRLNPAQRALYRDVMLETYSNLVSVGYEGTKPYVILKLEQEEAPWICEAACSGCHCQENICQ | 2.3884 | 
DOMAIN_14974 (protein, listed as Sapajus apella) AQKVLTFRDVAIEFSLEEWKFLDPAQQNLYRDVMLENYRNLFSIGLTVSKPGLITCLEQRKAPWNLKRREAVDGHPAMSSH | 2.9963 | 
DOMAIN_14602 (protein, listed as Gorilla sp.) RQEPVTFEDVAVYFTQNEWASLDSVQRALYREVMLENYANVASLAFPFITPVLVSQLEQGELPWGLDPWEPMGREALRGIC | 3.2145 | 
DOMAIN_14995 (protein, Cebus imitator) VQEPVTFKDVAVDFTQEEWGQLDLVQRTLYRDVMLETYGHLLSVGNQIAKPEVISLLEQGEEPWSVEQTCPQRACPEWMRN | 3.5057 | 
DOMAIN_21603 (protein, Lipotes vexillifer) SQGLVAFEDVAVYFSLEEWERLDADQRELYQEVMQENYGILVSLGYPIPKPDLIFRLEQGEEPWVPDSPRPEEGDIVTGVY |  | 2.8535
DOMAIN_21755 (protein, listed as Equus caballus) MEGLVMFRDVAVDFSQEEWACLDPAQRGLYRDVMLENYHHLVSLGLSLSKPDVISLLEQGKEPWMVSRNMAGGWCPDRLKN |  | 3.1889
DOMAIN_14905 (protein, listed as Rhinopithecus roxellana) PQESVAFEDVAVYFTTKEWAIMMPAERALYRDVMLENYEAVAFVVPPTSKPALVSHLEQGKESCFIQPQGVLSRSDWRAGL | 3.372 | 
DOMAIN_14576 (protein, listed as Ailuropoda melanoleuca) PQKSVTFEDVAVYFTQTEWDGLSPAQRALYRDVMLENYGNVASLGFSLLKPAVISQLEGADELEGPSPLVAGTEIGPQGLW | 3.2158 | 
DOMAIN_14551 (protein, listed as Ailuropoda melanoleuca) TVGSVMFSDVSVDFSQEEWECLDPGQRDLYRDVMLENYSNLLSMGLYIPKPQVISLLEQGKEPWMVGRELTRGLCSDLESM | 3.6894 | 

Molecule | Log2 (fold change) [1] | Log2 (fold change) [2]
DOMAIN_14862 (protein, listed as Callithrix jacchus) EMEPLTFRDVAIEFSLEEWQCLNPAQQDLFRNVMLENYRNLVFLGIAASKPDLITCLEKAKEPWKMKQHEMVDEPPGASTF | 2.8116 | 
DOMAIN_14885 (protein, Cebus imitator) SKAPITFGDLAIYFSQEEWEWLSPIQKDLYEDVMLENYRNLVSLGLSFRRPNVITLLEKGKAPWMVEPARRRRGPELTEAS | 3.5373 | 
DOMAIN_14627 (protein, listed as Acinonyx jubatus) LQGSLSFEDVTVGFSQEEWQRLDPAQRTLYRDVMLENYSHLVAVGCCVPKPDVIFRLEQGQQPWLVEEESLDQSCPEVCRV | 2.9501 | 
DOMAIN_14901 (protein, listed as Bos taurus) MKLGSVTFEDVAVYFSWEEWALLDEAQRCLYHDVMLENFALTSSLVVSSSSHTIAQLGLGEESFVLPRMHMIPLSTRWAQR | 2.9774 | 
DOMAIN_14639 (protein, listed as Macaca mulatta) KEKLVTFEDVAVYFTQAEWDGLSPAQRTLYRDVMLENYGNVASLGFPLLKPAVISQLEGGGELGGPSPLAAGTGLWGLRTG | 2.7046 | 
DOMAIN_14444 (protein, Phyllostomus discolor) MMGLVTFEDVAVDFTQEEWQYLNPPQRILYRGVMMETYRNLVFVAGQQATKPDLILKMEVEEPYLAEDKIPIWSCPEEACQ | 2.4641 | 
DOMAIN_14574 (protein, listed as Gorilla sp.) KPGAVSFADVAVYFSREEWGCLRPAQRALYRDVMRETYGHLGALGVGGSKPALISWVEEKAELWDPAAQDPEVAKCPTEAD | 3.3356 | 
DOMAIN_14534 (protein, listed as Lynx canadensis) KPGAVSFADVAVYFSPEEWGCLRPAQRALYRDVMRETYGHLGALGFRGTKPALISWVEEEADLWGPDARDPEVGECLTAAD | 2.8122 | 
DOMAIN_21336 (protein, listed as Equus caballus) PKVPVTFDDVAVYFSESEWGRLDKWQKELYKHVMRGNYEMLVSLDYAISKPDILTRMERGEEPCPDGPWGPEEGKEREAAR |  | 2.738
DOMAIN_14795 (protein, listed as Rhinopithecus roxellana) SLESELFRDVAIVFSQEEWQCLAPAQRDLYRDVMLETYSNLVSLGLAISKPDVISFLEQGKEPWMVERVVSGGLCPVLKYR | 2.8119 | 
DOMAIN_22153 (protein, listed as Zalophus californianus) VRMPVTFEDVAVTFTQEEWGQLDPAQRTLYQEVMLETCGLLVSLGCPLPKPELFYPLDHSPELQTLKRGLSPNSCPGDSTK |  | 3.6967
DOMAIN_14994 (protein, Bison bison) FQGSVTFRDVSIDFSQEEWEWLQPAQRDLYRHVMLENYGHLVSLGLNMSKPDVVSLLEQGKEPWLGNGDVSRELFPASKSN | 2.4997 | 
DOMAIN_14829 (protein, listed as Rhinopithecus roxellana) SCEGSVSFRDVAINFSREEWQHLDPSQRNLYRDVMLETYSHLLSVGYQVPEAEVVMLEQGKEPWALQGERPRQSCPGEKLW | 2.7188 | 
DOMAIN_14845 (protein, Cebus imitator) SYEGSVSFRDVAIDFSREEWRHLDLSQRNLYRDVMLETYSHLLSVGYQVPEAEVVMLEQGNEPWALQGERPHQSCPGEKLW | 2.7224 | 
DOMAIN_14794 (protein, listed as Acinonyx jubatus) YTLESLTLEDVAVDFTQEEWRLLAPAQKDLYWDVMLENFRNLVSVGYVASMPAALSRLERGGQWMTEDETRHWICPEIKKD | 3.4295 | 
DOMAIN_14773 (protein, listed as Sapajus apella) FQESVAFEDVAVYFTQNQWGSLDPAQRALYSEVMLENYANVASLVAFPFPKPALISHLEKGEAPWGPDPWDAEIPSGINQG | 3.5997 | 
DOMAIN_14977 (protein, listed as Sapajus apella) MAHLMFRDVAIDFSQEEWEGLDLKQRDLYRDVMLENYSNMVSLGLCIYQPDVFSLLEKGKEPWKILRDETRGPCPDMQSRC | 3.0085 | 
DOMAIN_14864 (protein, listed as Macaca mulatta) SVAFEDVAVNFTQEEWSLLDPSQKNLYREVMQETLRNLASIGKKWKDQNIENEYKNPRSNQRGLMEERLFESEGHQPGEIL | 3.3492 | 
